{"source": "paper PMC9911399", "about": "“Two distinct binding modes provide the RNA-binding protein RbFox with extraordinary sequence specificity”", "binders": {"B1": {"name": "CUCUGUA (DNA:RNA)", "RNA": "GGGAGACCGGAAUUCAGAUUGUCCCUCUGUAUUAAAUCCCGUCGUAGCCACCA", "DNA 1": "CAATCTGAATTCCGGTCTCCC", "DNA 2": "TGGTGGCTACGACGGGATT"}, "B2": {"name": "UCAUGAU (DNA:RNA)", "RNA": "B1 RNA with C25U, U26C, C27A, U30A, A31U", "DNA 1": "CAATCTGAATTCCGGTCTCCC", "DNA 2": "TGGTGGCTACGACGGGATT"}, "B3": {"name": "UAAGAUC (DNA:RNA)", "RNA": "B1 RNA with C25U, U26A, C27A, U28G, G29A, A31C", "DNA 1": "CAATCTGAATTCCGGTCTCCC", "DNA 2": "TGGTGGCTACGACGGGATT"}, "B4": {"name": "UGUCAGG (DNA:RNA)", "RNA": "GGGAGACCGGAAUUCAGAUUGUCCUGUCAGGUUAAAUCCCGUCGUAGCCACCA", "DNA 1": "CAATCTGAATTCCGGTCTCCC", "DNA 2": "TGGTGGCTACGACGGGATT"}, "B5": {"name": "CACUUCC (DNA:RNA)", "RNA": "B1 RNA with U26A, G29U, U30C, A31C", "DNA 1": "CAATCTGAATTCCGGTCTCCC", "DNA 2": "TGGTGGCTACGACGGGATT"}, "B6": {"name": "GGCCGGG (DNA:RNA)", "RNA": "B4 RNA with U25G, U27C, A29G", "DNA 1": "CAATCTGAATTCCGGTCTCCC", "DNA 2": "TGGTGGCTACGACGGGATT"}, "B7": {"name": "GCCUAAA (DNA:RNA)", "RNA": "B1 RNA with C25G, U26C, G29A, U30A", "DNA 1": "CAATCTGAATTCCGGTCTCCC", "DNA 2": "TGGTGGCTACGACGGGATT"}, "B8": {"name": "UGAUCGA (DNA:RNA)", "RNA": "B4 RNA with U27A, C28U, A29C, G31A", "DNA 1": "CAATCTGAATTCCGGTCTCCC", "DNA 2": "TGGTGGCTACGACGGGATT"}, "B9": {"name": "GUGGCAU (DNA:RNA)", "RNA": "B1 RNA with C25G, C27G, U28G, G29C, U30A, A31U", "DNA 1": "CAATCTGAATTCCGGTCTCCC", "DNA 2": "TGGTGGCTACGACGGGATT"}, "B10": {"name": "GCAUCGC (DNA:RNA)", "RNA": "B1 RNA with C25G, U26C, C27A, G29C, U30G, A31C", "DNA 1": "CAATCTGAATTCCGGTCTCCC", "DNA 2": "TGGTGGCTACGACGGGATT"}, "B11": {"name": "UUUCCAG (DNA:RNA)", "RNA": "B4 RNA with G26U, A29C, G30A", "DNA 1": "CAATCTGAATTCCGGTCTCCC", "DNA 2": "TGGTGGCTACGACGGGATT"}, "B12": {"name": "AACCCCC (DNA:RNA)", "RNA": "B1 RNA with C25A, U26A, U28C, G29C, U30C, A31C", "DNA 1": "CAATCTGAATTCCGGTCTCCC", "DNA 2": "TGGTGGCTACGACGGGATT"}, "B13": {"name": "UAGUAAA (DNA:RNA)", "RNA": "B1 RNA with C25U, U26A, C27G, G29A, U30A", "DNA 1": "CAATCTGAATTCCGGTCTCCC", "DNA 2": "TGGTGGCTACGACGGGATT"}, "B14": {"name": "UUUCGCC (DNA:RNA)", "RNA": "B4 RNA with G26U, A29G, G30C, G31C", "DNA 1": "CAATCTGAATTCCGGTCTCCC", "DNA 2": "TGGTGGCTACGACGGGATT"}, "B15": {"name": "UUGGUGC (DNA:RNA)", "RNA": "B4 RNA with G26U, U27G, C28G, A29U, G31C", "DNA 1": "CAATCTGAATTCCGGTCTCCC", "DNA 2": "TGGTGGCTACGACGGGATT"}, "B16": {"name": "GACAAUG (DNA:RNA)", "RNA": "B1 RNA with C25G, U26A, U28A, G29A, A31G", "DNA 1": "CAATCTGAATTCCGGTCTCCC", "DNA 2": "TGGTGGCTACGACGGGATT"}, "B17": {"name": "GUAGGGU (DNA:RNA)", "RNA": "B1 RNA with C25G, C27A, U28G, U30G, A31U", "DNA 1": "CAATCTGAATTCCGGTCTCCC", "DNA 2": "TGGTGGCTACGACGGGATT"}, "B18": {"name": "CCACUUG (DNA:RNA)", "RNA": "B1 RNA with U26C, C27A, U28C, G29U, A31G", "DNA 1": "CAATCTGAATTCCGGTCTCCC", "DNA 2": "TGGTGGCTACGACGGGATT"}, "B19": {"name": "GCUAGCA (DNA:RNA)", "RNA": "B1 RNA with C25G, U26C, C27U, U28A, U30C", "DNA 1": "CAATCTGAATTCCGGTCTCCC", "DNA 2": "TGGTGGCTACGACGGGATT"}, "B20": {"name": "GCGGUAA (DNA:RNA)", "RNA": "B1 RNA with C25G, U26C, C27G, U28G, G29U, U30A", "DNA 1": "CAATCTGAATTCCGGTCTCCC", "DNA 2": "TGGTGGCTACGACGGGATT"}, "B21": {"name": "UGCUGAU (DNA:RNA)", "RNA": "B1 RNA with C25U, U26G, U30A, A31U", "DNA 1": "CAATCTGAATTCCGGTCTCCC", "DNA 2": "TGGTGGCTACGACGGGATT"}, "B22": {"name": "CCGAGGC (DNA:RNA)", "RNA": "B1 RNA with U26C, C27G, U28A, U30G, A31C", "DNA 1": "CAATCTGAATTCCGGTCTCCC", "DNA 2": "TGGTGGCTACGACGGGATT"}, "B23": {"name": "CGCGAUA (DNA:RNA)", "RNA": "B1 RNA with U26G, U28G, G29A", "DNA 1": "CAATCTGAATTCCGGTCTCCC", "DNA 2": "TGGTGGCTACGACGGGATT"}, "B24": {"name": "CUUAUAU (DNA:RNA)", "RNA": "B1 RNA with C27U, U28A, G29U, U30A, A31U", "DNA 1": "CAATCTGAATTCCGGTCTCCC", "DNA 2": "TGGTGGCTACGACGGGATT"}, "B25": {"name": "UCCAAUA (DNA:RNA)", "RNA": "B1 RNA with C25U, U26C, U28A, G29A", "DNA 1": "CAATCTGAATTCCGGTCTCCC", "DNA 2": "TGGTGGCTACGACGGGATT"}, "B26": {"name": "UUAGAUC (DNA:RNA)", "RNA": "B1 RNA with C25U, C27A, U28G, G29A, A31C", "DNA 1": "CAATCTGAATTCCGGTCTCCC", "DNA 2": "TGGTGGCTACGACGGGATT"}, "B27": {"name": "AUGCAGC (DNA:RNA)", "RNA": "B4 RNA with U25A, G26U, U27G, G31C", "DNA 1": "CAATCTGAATTCCGGTCTCCC", "DNA 2": "TGGTGGCTACGACGGGATT"}, "B28": {"name": "ACUCGCU (DNA:RNA)", "RNA": "B4 RNA with U25A, G26C, A29G, G30C, G31U", "DNA 1": "CAATCTGAATTCCGGTCTCCC", "DNA 2": "TGGTGGCTACGACGGGATT"}, "B29": {"name": "GCUAUAA (DNA:RNA)", "RNA": "B1 RNA with C25G, U26C, C27U, U28A, G29U, U30A", "DNA 1": "CAATCTGAATTCCGGTCTCCC", "DNA 2": "TGGTGGCTACGACGGGATT"}, "B30": {"name": "GGAGCAU (DNA:RNA)", "RNA": "B4 RNA with U25G, U27A, C28G, A29C, G30A, G31U", "DNA 1": "CAATCTGAATTCCGGTCTCCC", "DNA 2": "TGGTGGCTACGACGGGATT"}, "B31": {"name": "UCUUGUC (DNA:RNA)", "RNA": "B1 RNA with C25U, U26C, C27U, A31C", "DNA 1": "CAATCTGAATTCCGGTCTCCC", "DNA 2": "TGGTGGCTACGACGGGATT"}}, "note": "Substitutions are numbered along the chain they refer to; changes in the protein carry UniProt numbers. This is one part of the list.", "data": [{"target": "T1, RBFOX1 RRM (Homo sapiens, UniProt Q9NWB1 109-208)", "T1 sequence": "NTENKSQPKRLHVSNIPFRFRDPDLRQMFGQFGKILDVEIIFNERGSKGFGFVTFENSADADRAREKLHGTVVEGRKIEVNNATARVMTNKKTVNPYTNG", "assay": "EMSA; HiTS-Eq, 1 nM pool, 10 min; buffer printed only for the single-RNA assays: 10 mM Tris pH 7.5, 150 mM NaCl, 3.4 mM EDTA, 0.001% NP-40, 30 C", "conditions": "tags: His6 N-terminal (pET28a); label: 5' 32P", "in_short": "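Relative association constants, normalised to the cognate motif, were derived by comparing read counts of each RNA species with those of the control reaction. The RNA sequenced was the free fraction, separated by 8% native PAGE after a 10 min equilibration in 50 µL of 1 nM 5′-radiolabelled RNA (7 randomized nucleotides) with increasing concentrations of purified wild-type or mutant RbFox RRM.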", "values": [{"binder": "B1", "binding signal": "0.00714 KA relative to UGCAUGU"}, {"binder": "B2", "binding signal": "0.0088 KA relative to UGCAUGU"}, {"binder": "B3", "binding signal": "0.0118 KA relative to UGCAUGU"}, {"binder": "B4", "binding signal": "0.0119 KA relative to UGCAUGU"}, {"binder": "B5", "binding signal": "0.00267 KA relative to UGCAUGU"}, {"binder": "B6", "binding signal": "0.012 KA relative to UGCAUGU"}, {"binder": "B7", "binding signal": "0.00601 KA relative to UGCAUGU"}, {"binder": "B8", "binding signal": "0.0347 KA relative to UGCAUGU"}, {"binder": "B9", "binding signal": "0.0252 KA relative to UGCAUGU"}, {"binder": "B10", "binding signal": "0.0149 KA relative to UGCAUGU"}, {"binder": "B11", "binding signal": "0.00734 KA relative to UGCAUGU"}, {"binder": "B12", "binding signal": "0.00577 KA relative to UGCAUGU"}, {"binder": "B13", "binding signal": "0.00712 KA relative to UGCAUGU"}, {"binder": "B14", "binding signal": "0.0166 KA relative to UGCAUGU"}, {"binder": "B15", "binding signal": "0.0277 KA relative to UGCAUGU"}, {"binder": "B16", "binding signal": "0.0175 KA relative to UGCAUGU"}, {"binder": "B17", "binding signal": "0.00791 KA relative to UGCAUGU"}, {"binder": "B18", "binding signal": "0.01 KA relative to UGCAUGU"}, {"binder": "B19", "binding signal": "0.0231 KA relative to UGCAUGU"}, {"binder": "B20", "binding signal": "0.0136 KA relative to UGCAUGU"}, {"binder": "B21", "binding signal": "0.0216 KA relative to UGCAUGU"}, {"binder": "B22", "binding signal": "0.018 KA relative to UGCAUGU"}, {"binder": "B23", "binding signal": "0.00807 KA relative to UGCAUGU"}, {"binder": "B24", "binding signal": "0.00214 KA relative to UGCAUGU"}, {"binder": "B25", "binding signal": "0.00192 KA relative to UGCAUGU"}, {"binder": "B26", "binding signal": "0.0111 KA relative to UGCAUGU"}, {"binder": "B27", "binding signal": "0.00756 KA relative to UGCAUGU"}, {"binder": "B28", "binding signal": "0.00463 KA relative to UGCAUGU"}, {"binder": "B29", "binding signal": "0.00546 KA relative to UGCAUGU"}, {"binder": "B30", "binding signal": "0.0166 KA relative to UGCAUGU"}, {"binder": "B31", "binding signal": "0.017 KA relative to UGCAUGU"}]}]}
